# Substitutions are numbered along the chain they refer to. These are yes or no findings as the source states them, for the method shown. For some assays here: Binding seen in cells or lysates may run through a third protein. Some results given as binding are weak or reduced against the parent protein; the word gives no strength. Tags and fused reporters may be left off the sequences shown.
# T1: Mer2-Flag (S. cerevisiae) (UniProt P21651)
# T1 sequence: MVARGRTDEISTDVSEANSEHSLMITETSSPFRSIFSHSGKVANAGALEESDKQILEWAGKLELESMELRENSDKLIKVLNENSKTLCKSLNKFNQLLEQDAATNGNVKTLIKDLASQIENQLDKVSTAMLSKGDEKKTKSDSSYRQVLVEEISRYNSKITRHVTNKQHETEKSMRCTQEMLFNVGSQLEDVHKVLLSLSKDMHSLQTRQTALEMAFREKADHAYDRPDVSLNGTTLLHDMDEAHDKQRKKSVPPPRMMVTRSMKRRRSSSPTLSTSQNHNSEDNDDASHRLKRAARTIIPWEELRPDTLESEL
# T2: Spp1-TAP (S. cerevisiae) (UniProt Q03012)
# T2 sequence: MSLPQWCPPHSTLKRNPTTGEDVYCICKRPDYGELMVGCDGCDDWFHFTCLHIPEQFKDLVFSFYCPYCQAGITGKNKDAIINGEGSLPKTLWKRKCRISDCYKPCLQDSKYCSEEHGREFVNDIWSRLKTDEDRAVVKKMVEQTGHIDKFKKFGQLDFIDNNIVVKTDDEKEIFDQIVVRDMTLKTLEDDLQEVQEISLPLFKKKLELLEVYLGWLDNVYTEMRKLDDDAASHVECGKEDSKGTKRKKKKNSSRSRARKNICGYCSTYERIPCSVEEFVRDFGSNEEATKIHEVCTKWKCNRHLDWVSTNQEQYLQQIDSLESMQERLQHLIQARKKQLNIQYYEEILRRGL
# T3: Swd1-HA (S. cerevisiae) (UniProt P39706)
# T3 sequence: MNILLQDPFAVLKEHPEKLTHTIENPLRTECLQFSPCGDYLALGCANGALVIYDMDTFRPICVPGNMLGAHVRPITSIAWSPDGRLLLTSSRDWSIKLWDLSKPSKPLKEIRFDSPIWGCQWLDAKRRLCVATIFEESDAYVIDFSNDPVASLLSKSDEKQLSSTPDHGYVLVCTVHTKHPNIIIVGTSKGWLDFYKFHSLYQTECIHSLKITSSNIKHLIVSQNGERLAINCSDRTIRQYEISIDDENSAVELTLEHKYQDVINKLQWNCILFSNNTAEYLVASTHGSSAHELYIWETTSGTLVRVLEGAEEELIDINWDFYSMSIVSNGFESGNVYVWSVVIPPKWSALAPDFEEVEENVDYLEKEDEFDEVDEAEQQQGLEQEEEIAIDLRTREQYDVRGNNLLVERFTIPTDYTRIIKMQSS
# T4: Set1 (two-hybrid fusion) (S. cerevisiae) (UniProt P38827)
# T4 sequence: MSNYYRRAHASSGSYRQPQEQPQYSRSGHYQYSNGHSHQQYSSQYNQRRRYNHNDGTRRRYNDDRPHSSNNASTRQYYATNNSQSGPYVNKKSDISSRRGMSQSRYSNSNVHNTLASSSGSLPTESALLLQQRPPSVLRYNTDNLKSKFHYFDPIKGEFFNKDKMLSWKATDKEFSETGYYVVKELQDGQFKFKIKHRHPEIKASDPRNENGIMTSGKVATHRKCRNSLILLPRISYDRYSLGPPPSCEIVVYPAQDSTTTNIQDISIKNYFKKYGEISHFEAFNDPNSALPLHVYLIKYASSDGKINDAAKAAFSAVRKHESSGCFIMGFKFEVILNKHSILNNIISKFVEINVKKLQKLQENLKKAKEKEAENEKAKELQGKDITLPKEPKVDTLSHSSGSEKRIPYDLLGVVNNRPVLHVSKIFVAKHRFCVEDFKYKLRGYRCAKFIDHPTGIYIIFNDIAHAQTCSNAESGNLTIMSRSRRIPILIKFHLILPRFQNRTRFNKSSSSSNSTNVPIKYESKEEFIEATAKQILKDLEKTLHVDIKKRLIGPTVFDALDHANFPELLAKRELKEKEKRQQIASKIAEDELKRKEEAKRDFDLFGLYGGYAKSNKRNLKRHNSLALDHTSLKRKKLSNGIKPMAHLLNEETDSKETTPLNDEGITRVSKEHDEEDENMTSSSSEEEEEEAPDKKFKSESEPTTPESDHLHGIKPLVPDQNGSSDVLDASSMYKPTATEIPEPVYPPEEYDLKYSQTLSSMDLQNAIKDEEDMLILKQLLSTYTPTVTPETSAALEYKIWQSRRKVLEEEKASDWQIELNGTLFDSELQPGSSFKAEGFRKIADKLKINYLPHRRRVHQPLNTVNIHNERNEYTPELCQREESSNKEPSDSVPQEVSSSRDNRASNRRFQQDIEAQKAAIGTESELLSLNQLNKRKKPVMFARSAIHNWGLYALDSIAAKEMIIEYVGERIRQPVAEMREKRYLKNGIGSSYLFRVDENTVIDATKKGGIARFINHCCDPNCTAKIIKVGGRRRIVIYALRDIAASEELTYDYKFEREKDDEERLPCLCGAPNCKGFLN
# T5: Mer2 (two-hybrid fusion) (S. cerevisiae) (UniProt P21651)
# T5 sequence: T1 sequence
# T6: Mer2 V195D (two-hybrid fusion) (S. cerevisiae) (UniProt P21651)
# T6 sequence: T1 sequence with V195D
# B1: Spp1-Myc (protein, UniProt Q03012 1-353)
# chain: T2 sequence
# B2: Mer2-Flag (protein, UniProt P21651 1-314)
# chain: T1 sequence
# B3: Spp1 (two-hybrid fusion) (protein, UniProt Q03012 1-353)
# chain: T2 sequence
# B4: Shg1 (two-hybrid fusion) (protein, UniProt P38337 1-142)
# chain: MAYNQEDSKRLSDKYKKEGHFDKLKREILSNPWNNTEENSESFEQALRKRVASTVKEMVNEDEELIFKNRGLTSALIESQLVKDNYLKLGSKMEGDNGDGEKKFDLDVYVRSKLQDPKLLEMIKGQLQETLNSYEEEANGST
# B5: Swd2 (two-hybrid fusion) (protein, UniProt P36104 1-329)
# chain: MTTVSINKPNLLKFKHVKSFQPQEKDCGPVTSLNFDDNGQFLLTSSSNDTMQLYSATNCKFLDTIASKKYGCHSAIFTHAQNECIYSSTMKNFDIKYLNLETNQYLRYFSGHGALVNDLKMNPVNDTFLSSSYDESVRLWDLKISKPQVIIPSLVPNCIAYDPSGLVFALGNPENFEIGLYNLKKIQEGPFLIIKINDATFSQWNKLEFSNNGKYLLVGSSIGKHLIFDAFTGQQLFELIGTRAFPMREFLDSGSACFTPDGEFVLGTDYDGRIAIWNHSDSISNKVLRPQGFIPCVSHETCPRSIAFNPKYSMFVTADETVDFYVYDE
# B6: Spp1∆263–266 (two-hybrid fusion) (protein, UniProt Q03012)
# chain: MSLPQWCPPHSTLKRNPTTGEDVYCICKRPDYGELMVGCDGCDDWFHFTCLHIPEQFKDLVFSFYCPYCQAGITGKNKDAIINGEGSLPKTLWKRKCRISDCYKPCLQDSKYCSEEHGREFVNDIWSRLKTDEDRAVVKKMVEQTGHIDKFKKFGQLDFIDNNIVVKTDDEKEIFDQIVVRDMTLKTLEDDLQEVQEISLPLFKKKLELLEVYLGWLDNVYTEMRKLDDDAASHVECGKEDSKGTKRKKKKNSSRSRARKNISTYERIPCSVEEFVRDFGSNEEATKIHEVCTKWKCNRHLDWVSTNQEQYLQQIDSLESMQERLQHLIQARKKQLNIQYYEEILRRGL
# B7: Mer2_sid-Flag (protein, UniProt P21651 1-314)
# chain: T1 sequence with V195D
# B8: Swd1-HA (protein, UniProt P39706 1-426)
# chain: T3 sequence
# Legend:
# [1] = molecular target: T1, Mer2-Flag (S. cerevisiae); test: co-IP; Mer2-Flag precipitated with anti-FLAG M2 magnetic beads from cells at 3.5 hr in meiosis, eluted with Flag peptide; lysis buffer 150 mM NaCl, 0.5% Triton X-100, benzonase; western blot
# Spp1-TAP (S. cerevisiae) = molecular target: T2, Spp1-TAP (S. cerevisiae); test: co-IP; Spp1-TAP captured on PanMouse IgG magnetic beads from SET1 cells, vegetative or meiotic, eluted by Tev cleavage; lysis buffer 150 mM NaCl, 0.5% Triton X-100, benzonase; western blot with anti-HA, anti-Flag, anti-TAP
# Swd1-HA (S. cerevisiae) = molecular target: T3, Swd1-HA (S. cerevisiae); test: co-IP; Swd1-HA precipitated with anti-HA 16B12 and Protein G magnetic beads from cells at 3.5 hr in meiosis; lysis buffer 150 mM NaCl, 0.5% Triton X-100, benzonase; western blot with anti-HA, anti-Myc, anti-Flag
# [2] = molecular target: T4, Set1 (two-hybrid fusion) (S. cerevisiae); test: two-hybrid; Gal4 activation domain and Gal4 DNA-binding domain N-terminal fusions in Y187 and AH109, mated; growth on medium without leucine, tryptophan and histidine
# [3] = molecular target: T5, Mer2 (two-hybrid fusion) (S. cerevisiae); test: as above
# [4] = molecular target: T6, Mer2 V195D (two-hybrid fusion) (S. cerevisiae); test: as above
binder,measurement,setting,value
B1,binding,[1],binds
B2,binding,Spp1-TAP (S. cerevisiae),binds
same,binding,Swd1-HA (S. cerevisiae),no binding
B3,binding,[2],binds
same,binding,[3],binds
same,binding,[4],no binding
B4,binding,[2],binds
B5,binding,[2],binds
B6,binding,[3],binds
B7,binding,Spp1-TAP (S. cerevisiae),no binding
B8,binding,[1],no binding

# Reference: article PMC5828529
